# Measured values: the supplement of paper PMC8728848
# The list shows a part of the results.
# B1: Clone730PsrP (Streptococcus pneumoniae) (protein)
# chain: MDHHHHHHHHHHASENLYFQGAMVVGSQTAAATEATAKKVEEDRKKPASDYVASVTNVNLQSYAKRRKRSVDSIEQLLASIKNAAVFSGNTIVNGAPAINASLNIAKSETKVYTGEGVDSVYRVPIYYKLKVTNDGSKLTFTYTVTYVNPKTNDLGNISSMRPGYSIYNSGTSTQTMLTLGSDLGKPSGVKNYITDKNGRQVLSYNTSTMTTQGSGYTWGNGAQMNGFFAKKGYGLTSSWTVPITGTDTSFTFTPYAARTDRIGINYFNGGGKVVESSTT
# Assays:
# Test in all cases: glycan array binding signal (z-score within array); higher = stronger binding
# Conditions in all cases: glycan notation: IUPAC condensed, linker removed
# [1] = target: Neu5Ac(a2-3)Gal(b1-4)Glc
# Method in brief: (§1)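 Glycan array data were curated from 3228 arrays in the Consortium for Functional Glycomics database and kept only where the protein sequence was available. Glycan names were converted to IUPAC-condensed notation, and columns mapping to the same glycan were averaged. The binding signal is a within-array Z-score, averaged across arrays of the same protein sequence at different concentrations or buffers and across linkers. Negative Z-scores can be read as non-binding.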
# [2] = target: Neu5Ac(a2-3)Gal(b1-4)GlcNAc
# Method in brief: as §1
# [3] = target: Neu5Ac(a2-3)Gal(b1-4)GlcNAc(b1-2)Man
# Method in brief: as §1
# [4] = target: Neu5Ac(a2-3)Gal(b1-4)GlcNAc(b1-2)Man(a1-3)[GlcNAc(b1-4)][Neu5Ac(a2-3)Gal(b1-4)GlcNAc(b1-2)Man(a1-6)]Man(b1-4)GlcNAc(b1-4)GlcNAc
# Method in brief: as §1
# [5] = target: Neu5Ac(a2-3)Gal(b1-4)GlcNAc(b1-2)Man(a1-3)[Neu5Ac(a2-3)Gal(b1-4)GlcNAc(b1-2)Man(a1-6)]Man(b1-4)GlcNAc(b1-4)GlcNAc
# Method in brief: as §1
# [6] = target: Neu5Ac(a2-3)Gal(b1-4)GlcNAc(b1-2)Man(a1-3)[Neu5Ac(a2-3)Gal(b1-4)GlcNAc(b1-2)Man(a1-6)]Man(b1-4)GlcNAc(b1-4)[Fuc(a1-6)]GlcNAc
# Method in brief: as §1
# [7] = target: Neu5Ac(a2-3)Gal(b1-4)GlcNAc(b1-2)Man(a1-3)[Neu5Ac(a2-6)Gal(b1-4)GlcNAc(b1-2)Man(a1-6)]Man(b1-4)GlcNAc(b1-4)GlcNAc
# Method in brief: as §1
# [8] = target: Neu5Ac(a2-3)Gal(b1-4)GlcNAc(b1-2)[Neu5Ac(a2-3)Gal(b1-4)GlcNAc(b1-4)]Man(a1-3)[GlcNAc(b1-4)][Neu5Ac(a2-3)Gal(b1-4)GlcNAc(b1-2)[Neu5Ac(a2-3)Gal(b1-4)GlcNAc(b1-6)]Man(a1-6)]Man(b1-4)GlcNAc(b1-4)GlcNAc
# Method in brief: as §1
# [9] = target: Neu5Ac(a2-3)Gal(b1-4)GlcNAc(b1-2)[Neu5Ac(a2-3)Gal(b1-4)GlcNAc(b1-4)]Man(a1-3)[GlcNAc(b1-4)][Neu5Ac(a2-3)Gal(b1-4)GlcNAc(b1-4)Man(a1-6)]Man(b1-4)GlcNAc(b1-4)GlcNAc
# Method in brief: as §1
# [10] = target: Neu5Ac(a2-3)Gal(b1-4)GlcNAc(b1-2)[Neu5Ac(a2-3)Gal(b1-4)GlcNAc(b1-6)]Man(a1-6)[Neu5Ac(a2-3)Gal(b1-4)GlcNAc(b1-2)Man(a1-3)]Man(b1-4)GlcNAc(b1-4)GlcNAc
# Method in brief: as §1
# [11] = target: Neu5Ac(a2-3)Gal(b1-4)GlcNAc(b1-2)[Neu5Ac(a2-3)Gal(b1-4)GlcNAc(b1-6)]Man(a1-6)[Neu5Ac(a2-3)Gal(b1-4)GlcNAc(b1-2)Man(a1-3)][GlcNAc(b1-4)]Man(b1-4)GlcNAc(b1-4)GlcNAc
# Method in brief: as §1
# [12] = target: Neu5Ac(a2-3)Gal(b1-4)GlcNAc(b1-3)Gal
# Method in brief: as §1
# [13] = target: Neu5Ac(a2-3)Gal(b1-4)GlcNAc(b1-3)Gal(b1-3)GlcNAc
# Method in brief: as §1
# [14] = target: Neu5Ac(a2-3)Gal(b1-4)GlcNAc(b1-3)Gal(b1-4)GlcNAc
# Method in brief: as §1
# [15] = target: Neu5Ac(a2-3)Gal(b1-4)GlcNAc(b1-3)Gal(b1-4)GlcNAc(b1-2)Man(a1-3)[Neu5Ac(a2-3)Gal(b1-4)GlcNAc(b1-3)Gal(b1-4)GlcNAc(b1-2)Man(a1-6)]Man(b1-4)GlcNAc(b1-4)GlcNAc
# Method in brief: as §1
# [16] = target: Neu5Ac(a2-3)Gal(b1-4)GlcNAc(b1-3)Gal(b1-4)GlcNAc(b1-3)Gal(b1-4)GlcNAc
# Method in brief: as §1
# [17] = target: Neu5Ac(a2-3)Gal(b1-4)GlcNAc(b1-3)Gal(b1-4)GlcNAc(b1-3)Gal(b1-4)GlcNAc(b1-2)Man(a1-3)[Neu5Ac(a2-3)Gal(b1-4)GlcNAc(b1-3)Gal(b1-4)GlcNAc(b1-3)Gal(b1-4)GlcNAc(b1-2)Man(a1-6)]GalNAc
# Method in brief: as §1
# [18] = target: Neu5Ac(a2-3)Gal(b1-4)GlcNAc(b1-3)Gal(b1-4)GlcNAc(b1-3)GalNAc
# Method in brief: as §1
# [19] = target: Neu5Ac(a2-3)Gal(b1-4)GlcNAc(b1-3)Gal(b1-4)GlcNAc(b1-3)[Neu5Ac(a2-3)Gal(b1-4)GlcNAc(b1-3)Gal(b1-4)GlcNAc(b1-6)]GalNAc
# Method in brief: as §1
# [20] = target: Neu5Ac(a2-3)Gal(b1-4)GlcNAc(b1-3)Gal(b1-4)GlcNAc(b1-6)[Gal(b1-3)]GalNAc
# Method in brief: as §1
# [21] = target: Neu5Ac(a2-3)Gal(b1-4)GlcNAc(b1-3)Gal(b1-4)[Fuc(a1-3)]GlcNAc
# Method in brief: as §1
# [22] = target: Neu5Ac(a2-3)Gal(b1-4)GlcNAc(b1-3)GalNAc
# Method in brief: as §1
# [23] = target: Neu5Ac(a2-3)Gal(b1-4)GlcNAc(b1-3)[Neu5Ac(a2-3)Gal(b1-4)GlcNAc(b1-6)]GalNAc
# Method in brief: as §1
# [24] = target: Neu5Ac(a2-3)Gal(b1-4)GlcNAc(b1-6)GalNAc
# Method in brief: as §1
# [25] = target: Neu5Ac(a2-3)Gal(b1-4)GlcNAc(b1-6)[Gal(b1-3)]GalNAc
# Method in brief: as §1
# [26] = target: Neu5Ac(a2-3)Gal(b1-4)GlcNAc(b1-6)[Neu5Ac(a2-3)Gal(b1-3)]GalNAc
# Method in brief: as §1
# [27] = target: Neu5Ac(a2-3)Gal(b1-4)GlcNAc6S
# Method in brief: as §1
# [28] = target: Neu5Ac(a2-3)Gal(b1-4)[Fuc(a1-3)]GlcNAc
# Method in brief: as §1
# [29] = target: Neu5Ac(a2-3)Gal(b1-4)[Fuc(a1-3)]GlcNAc(b1-2)Man
# Method in brief: as §1
# [30] = target: Neu5Ac(a2-3)Gal(b1-4)[Fuc(a1-3)]GlcNAc(b1-3)Gal
# Method in brief: as §1
# [31] = target: Neu5Ac(a2-3)Gal(b1-4)[Fuc(a1-3)]GlcNAc(b1-3)Gal(b1-4)GlcNAc
# Method in brief: as §1
# [32] = target: Neu5Ac(a2-3)Gal(b1-4)[Fuc(a1-3)]GlcNAc(b1-3)Gal(b1-4)[Fuc(a1-3)]GlcNAc(b1-3)Gal(b1-4)[Fuc(a1-3)]GlcNAc
# Method in brief: as §1
# [33] = target: Neu5Ac(a2-3)Gal(b1-4)[Fuc(a1-3)]GlcNAc(b1-3)GalNAc
# Method in brief: as §1
# [34] = target: Neu5Ac(a2-3)Gal(b1-4)[Fuc(a1-3)]GlcNAc(b1-6)[Gal(b1-3)]GalNAc
# Method in brief: as §1
# [35] = target: Neu5Ac(a2-3)Gal(b1-4)[Fuc(a1-3)]GlcNAc(b1-6)[Neu5Ac(a2-3)Gal(b1-3)]GalNAc
# Method in brief: as §1
# [36] = target: Neu5Ac(a2-3)Gal(b1-4)[Fuc(a1-3)]GlcNAc6S
# Method in brief: as §1
# [37] = target: Neu5Ac(a2-3)Gal6S(b1-4)GlcNAc
# Method in brief: as §1
# [38] = target: Neu5Ac(a2-3)Gal6S(b1-4)[Fuc(a1-3)]GlcNAc
# Method in brief: as §1
binder,measurement,setting,value
B1,glycan array binding signal (z-score),[1],1.09
same,glycan array binding signal (z-score),[2],0.638
same,glycan array binding signal (z-score),[3],1.83
same,glycan array binding signal (z-score),[4],-0.507
same,glycan array binding signal (z-score),[5],-0.336
same,glycan array binding signal (z-score),[6],-0.658
same,glycan array binding signal (z-score),[7],-0.561
same,glycan array binding signal (z-score),[8],-0.404
same,glycan array binding signal (z-score),[9],-0.589
same,glycan array binding signal (z-score),[10],-0.261
same,glycan array binding signal (z-score),[11],-0.522
same,glycan array binding signal (z-score),[12],-0.586
same,glycan array binding signal (z-score),[13],-0.639
same,glycan array binding signal (z-score),[14],0.696
same,glycan array binding signal (z-score),[15],-0.173
same,glycan array binding signal (z-score),[16],-0.452
same,glycan array binding signal (z-score),[17],1.38
same,glycan array binding signal (z-score),[18],-0.327
same,glycan array binding signal (z-score),[19],-0.395
same,glycan array binding signal (z-score),[20],-0.073
same,glycan array binding signal (z-score),[21],-0.015
same,glycan array binding signal (z-score),[22],-0.294
same,glycan array binding signal (z-score),[23],-0.146
same,glycan array binding signal (z-score),[24],-0.233
same,glycan array binding signal (z-score),[25],0.026
same,glycan array binding signal (z-score),[26],-0.222
same,glycan array binding signal (z-score),[27],-0.15
same,glycan array binding signal (z-score),[28],-0.465
same,glycan array binding signal (z-score),[29],-0.152
same,glycan array binding signal (z-score),[30],-0.51
same,glycan array binding signal (z-score),[31],-0.001
same,glycan array binding signal (z-score),[32],-0.46
same,glycan array binding signal (z-score),[33],0.409
same,glycan array binding signal (z-score),[34],-0.435
same,glycan array binding signal (z-score),[35],0.717
same,glycan array binding signal (z-score),[36],1.98
same,glycan array binding signal (z-score),[37],-0.513
same,glycan array binding signal (z-score),[38],-0.592
